Assay results: the supplement of paper PMC10126150
Sequences with one replicate were seen in a single cluster, so their values are uncertain.

Tested on: ATP
Experiment: switch fluorescence ratio, 500 uM ATP over buffer (Cy3 cluster intensity, sum of 5 cycles each) (fold (ratio)); higher = stronger signal-on switching upon ATP binding; sequences stand for … in TCGTCGGCAGCGTCAGATGTGTATAAGAGACAGTTTTTTTTTTTTTTTTTTTTTTTTT…TC
Settings: aptamer strand: ATP DNA aptamer (quencher-CACCTGGGGGAGTATTGCGGAGGAAGG + anchor), 100 nM annealed; ATP concentration: 500 uM; one replicate
In short: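 Imaging in selection buffer was followed by imaging after 15 min with 500 uM ATP at 22 °C, for Cy3-labelled switching-strand clusters annealed to 100 nM quencher-labelled ATP aptamer on a modified Illumina MiSeq flow-cell. Five of these buffer/ATP cycles ran, separated by NaOH stripping and re-annealing. The fluorescence ratio per cluster is summed target-cycle over summed buffer-cycle Cy3 intensity, averaged per switch-domain sequence; clusters outside 100-1000 RFU were removed.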
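Also: ATP exposure 15 min at 22 °C before imaging.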

Sequence | switch fluorescence ratio
CCATATTGTC | 1.06
ATTGTGGTC | 1.02
TTGATGGAGT | 0.978
CAATGTTCTT | 0.996
GAAAACGAAA | 1.01
CTGGGAATA | 1.02
GTGTAGCAAT | 3.74
ATGCGACGGT | 1.09
AGACGTGCGC | 1.05
GTGGTACGTT | 0.969
AGGAACCTTT | 1.26
TGAGTCCGGG | 0.999
ATTACAGCCC | 1.03
ATGTCCGTCA | 0.917
ATGCTGCAA | 1.43
TTTAGACTAT | 0.987
GGTGACAATG | 1.02
TCGCGGGCTG | 0.98
GAAAGGGGG | 0.998
TCACCGTAGA | 1.13
GATTCCGCGT | 1.82
TTTGCCTAGG | 1.05
CTTTTAGATA | 1.04
GATTGGCTG | 0.958
GGAGTTCTTG | 0.987
TGAGTCGCTG | 1.03

Sequence | switch fluorescence ratio
GCTGTCTGCA | 0.988
AAAGCGACAG | 0.997
AGATTGATAG | 1.01
TAGGGTGACT | 1.05
ACGCCATCGA | 1.11
TTGCGCCC | 1
GGAAAGCCGG | 0.993
AGCTTCAATC | 1.09
ACAACGTTTG | 1
AAGCTAAAAA | 1.02
GATCGAAATT | 0.984
CGTTTCGGGG | 0.962
TCTGCAGAGT | 0.991
AAATTCACGA | 1.03
AAGATCCCTG | 0.972
GCCTCCCAGT | 1.06
AAATCCAAGG | 1.01
GCCATAGTGT | 0.979
GGTCACGTC | 0.954
CGTGAGAGGT | 0.956
TTAGGCCG | 0.942
TCGTAGAAAT | 1.73
ATGATTGCG | 1
ACGAGGAGGG | 1.01
GGTGACACAT | 0.988
GCCTAAATCC | 1

Sequence | switch fluorescence ratio
TTGCGGAAAT | 0.975
TCATAGCGGC | 1.06
TGACATACCT | 1.38
AGGTCAGTTG | 0.988
CCAGACAAGC | 1.01
CGTATAGATA | 1.01
GGTACGTGGG | 0.986
GCTCCTATTA | 1.06
GCTAGTTAGC | 0.998
ATAGGAATAT | 0.996
GTGTACTATG | 1.03
CGCGCGCTCT | 0.995
GGCTAACGTG | 1.01
TTTGCACGAT | 1.07
CCATTAACCT | 1.77
AGCTAACGAT | 1.03
AATACAGGGG | 1.01
AGGAGTCGCG | 0.959
CTGGAAGACG | 1.01
CAGGGTAAAT | 0.97
TGAGGCGTTT | 1.01
TAGTCGTCTT | 1.01
TAGGATCATA | 1.03
TATACATGTT | 0.993
GCCCCTTTTC | 1.03
AGGGTCGAGC | 0.989

Sequence | switch fluorescence ratio
AGGGGGAGT | 1.02
AGGTAGGTAT | 0.985
TACTGTACT | 1.6
ACCAAAGTTT | 0.977
TGGCTCCACG | 1.05
AAGTTAGTTG | 0.999
GAGTCTACGA | 0.992
GTATCTTAGT | 1.01
CGTCATGCAA | 3.2
TTAGGGTATA | 1.03
CGTTTTCGTT | 1.04
ACGCCCGCCG | 1.06
TAGGTGATAG | 1.02
ACAGCGATCA | 1.07
TGATTTTCAG | 0.935
CTAATACGGT | 0.998
AAACTAGTTG | 0.928
AGACTGCGA | 0.982
AGTCAGAGTG | 0.985
TGGGGCCCCC | 0.992
TAGACGTCTC | 0.976
CCCCAACTGG | 1.07
AGCTGCCTCA | 1.11
CTTTTGTTCG | 0.97
TGTGTGAATC | 0.969
GGAAAATAT | 0.983

Sequence | switch fluorescence ratio
TAATTCAGAC | 1.1
ATGTTGCCTG | 1.01
CGTGGGCCGG | 0.99
TCCGTGGCTA | 2.61
GTGATGAAAA | 0.919
AAACAAATC | 0.988
ATCATTGTGG | 0.998
AGTCGAAGTA | 0.977
TCCGGCGGGG | 0.915
CATTGTATAA | 0.998
AAATGTAAGT | 0.992
CTGCTCCCTA | 1.02
GCATTACCGT | 1.08
GATTGGTG | 1
CTCTACCCTT | 1.05
CTCAATCAG | 1.01
CGTGACCAA | 0.991
AGCGTAA | 1.06
ACCTGATTTT | 0.997
TGCTCAAACG | 1.03
ATTGTAGCTT | 1.05
TCGTATGATT | 0.966
AAGCAGGTTT | 1.02
TACTACAAAT | 1.06
TTGGGCATAT | 1.01
CTGGGTTAAA | 1.02

Sequence | switch fluorescence ratio
TAACGTAATA | 1.35
GATTGTAGTC | 0.994
ACCATGCAGC | 1.05
ACTGGTGCTT | 0.969
TATCAGCCCG | 1
GCCACCGATT | 1.05
ATCTAATAAA | 1.02
CACTTTGG | 0.98
GTGCTACCTT | 1.02
ACGCAGAAAT | 1.81
CATAGTCAGG | 1.04
CTACCGCGGA | 3.3
GAAGGTACAA | 1.05
ATAGGACTGC | 1.07
TAATCCTTTT | 0.998
CTATACAGTT | 1.03
CAAGACGCCC | 1.41
GCGTTCTTTG | 1.02
ATCTGATTAT | 1
GTTTCGGATT | 0.996
TAACTAGCTG | 1.04
CGCCGTTAAA | 1.04
ACGCTCTAC | 3.71
ATAAGCTAAT | 0.983
CACCGTCTTT | 0.991
GCCCTTAGAC | 1.03

Sequence | switch fluorescence ratio
CCGAGCCTAT | 2.36
GGGTGCAGGT | 0.975
ACGGTGCAAA | 1.24
TAGGATCAAT | 0.975
CCCACGGACT | 1.32
ACTGCGTCAG | 0.998
GGTATGAGCG | 1.05
GTGGAGAAAA | 0.994
CATACATTT | 0.996
CATACAAGCC | 1.01
CTTTTTGCCT | 1.02
TATTATGTAC | 1.06
CAACGTCGTG | 0.973
GAATATAGGC | 0.959
AATCCTGTGT | 0.943
CCGTATGACA | 1.05
TATGAACGGG | 1.06
TGTCACAGAT | 1.01
CTAAACATTG | 1
AGTGGTTTTA | 0.984
GGTGGAGCCG | 0.993
TAACGGCGTT | 1.03
TTCCATTCCG | 1.09
TGTTCTGCGT | 1.05
AGGGGTTGTC | 1.01
ACAGTAGAAT | 1.02

Sequence | switch fluorescence ratio
GCGAATGCAC | 0.999
GGGCGCCACA | 0.974
CGGGTCTTTC | 0.99
TTACCCACTA | 1.39
CTCAGGGTTG | 1.01
GGAAGGATGA | 0.965
ACAAGCCTTA | 1.02
CTGATTTCTA | 1.02
AGAACTTATT | 1
TTAGAAGTCT | 0.957
TGGGGCCATA | 0.998
AATGTTAGGG | 0.992
CGGGTTACCA | 0.993
CGGTGCTCTT | 0.972
ATCACGCCCT | 1.12
GGAAACTGAG | 1.12
TCTGCACACC | 1.4
AAGAGATCAC | 0.97
TGGAATAGGC | 1.03
